Over roughly 16,000 sequences, “Z-score” has its median near -0.37; the highest 2% begin near 3.2. The list shows a part of the results.
test system: RBM10 RRM1-ZnF (GST-tagged construct); assay: RNAcompete 7-mer binding Z-score; higher = stronger binding preference
How it was run: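 A designed pool of 241 399 RNAs, each up to 41 nt and transcribed from microarray-derived DNA templates, was used at 1.5 nmol with 20 pmol of GST-tagged RBM10 constructs. The mixture, in 1 ml Hepes pH 7.8 buffer with KCl, NaCl, glycerol, DTT, BSA and glutathione Sepharose beads, was held 30 min at 4°C and then washed four times for 2 min at 4°C. Bound RNA was read out by microarray hybridisation, and enrichment of each heptamer motif was scored as a one-sided Z-score over the probes carrying it.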

Sequence	RNAcompete 7-mer binding Z-score
CGCACGG	0.0885
CUAACGG	0.235
CUUGUGU	-0.594
CCGUAGG	0.508
CAUCGUC	-0.681
CGAAAAA	-0.431
CUCUAAG	-0.532
CAGGCUA	0.244
CGGCAAU	-0.22
AAGGCUA	0.566
GAGCACA	-0.253
UGCAUCC	-0.759
UGUCGAU	-0.519
UCACAUG	-0.405
UACUCAC	-0.704
UGGGUUA	3.28
GCGGGAU	2.2
AACACUA	-0.496
AGAUAUG	0.686
AAAACCU	-0.743
UAGUCCC	-0.594
UCCUAUU	-0.867
AUUUUGA	-0.714

Sequence	RNAcompete 7-mer binding Z-score
CUUUUAG	-0.688
UUAGCGU	-0.324
UCAUAGU	-0.402
CCUCCGA	-0.662
AGUCAAG	0.147
UGUAGGC	0.553
GAUUUUC	-0.737
CCCCGGG	0.647
CACGGCC	-0.655
GGACCAU	-0.373
UUGAUAC	-0.35
ACAAAUC	-0.662
AGCACAC	-0.642
UCAUUCU	-0.662
CCCGUCG	-0.467
ACAUUCU	-0.876
CCCGCUC	-0.552
CCCAAGA	-0.568
CAGCCCA	-0.379
AACAAAC	-0.435
UUGUCGC	-0.558
AGCCGUG	-0.444
AGUGAGG	2.62

Sequence	RNAcompete 7-mer binding Z-score
AAAGUUC	-0.578
AACGGAA	1.44
UUCUGCG	-0.594
UUUCUUC	-0.779
UUGGCUA	-0.0414
UCGGGGA	1.6
UUCUCCA	-0.785
GUAGAUC	0.0398
UAAUUGG	0.706
CUCAAUA	-0.802
GUGCCCC	0.03
AAGUGGC	0.664
AUAGCUC	-0.493
GAACCGA	-0.24
GUUUGUU	0.017
CCGUAUG	-0.529
GUUCAAA	-0.399
GGGCCAU	-0.0902
UACUCCC	-0.785
UUCCAUG	-0.756
GGCGCCC	-0.34
CAGAUGA	-0.0187
AUUAGCG	-0.0902

Sequence	RNAcompete 7-mer binding Z-score
CGAUUAA	-0.48
GUGCGUA	0.511
GCGUACA	-0.0609
GGUCACC	0.108
UAGGCCA	-0.162
CGAAGGA	1.62
AUGUCAC	-0.509
AUCACGG	0.03
UGAGGGC	2.27
AGAGCGA	0.586
UCCGACC	-0.776
GGUCCCC	0.043
GUUGGGU	3.12
GCUAACC	-0.646
ACAAUGC	-0.461
CGUGCUC	-0.584
CAGGCUC	-0.318
GAGAGUC	0.225
ACCCCAU	-0.662
AAUACGG	0.94
CAAUCGA	-0.477
GCCGCCG	-0.36
AAGGCAG	1.74

Sequence	RNAcompete 7-mer binding Z-score
GGAGGAG	2.93
CGAAUAU	-0.685
GGUAUGA	2.19
AGUAAGC	0.0105
CUUCAUA	-0.847
ACGUAUG	-0.0252
CCCACAA	-0.535
CUCUGCU	-0.789
AAACUCC	-0.685
UCUACGA	-0.617
UGACCAA	-0.37
GCACGAU	0.0918
CGCCCCC	-0.35
AUCCGGA	-0.435
UGCAAAG	0.244
UUGACAU	-0.467
UAAGGUG	2.16
CGUCCUG	-0.467
UGCGAUA	-0.223
GCACAGG	1.19
CACGCUG	-0.0155
GACCACC	-0.483
AGAGCAA	-0.0479

Sequence	RNAcompete 7-mer binding Z-score
CGAUUGU	-0.435
CAAUGUA	-0.126
UCCAACU	-0.85
AGGGCUA	1.13
CGUAUUU	-0.769
UCGUGUU	-0.652
CGGUGGG	3.2
CUUAGCG	-0.704
CGAGGGA	2.84
AAGCCUA	-0.759
AUACUAC	-0.672
AGGGUUA	3.55
CGAGUGC	-0.0414
CCCCGUA	-0.402
GAAAUUU	-0.418
CUUGUAU	-0.72
GACUCGA	-0.5
CGAGGAC	0.501
GGGGACG	2.55
UAUCAAU	-0.652
UGAGCAU	-0.0999
AAGUGAU	0.459
AGGGCUC	0.0983

Sequence	RNAcompete 7-mer binding Z-score
AUCGUAG	-0.275
GUAUCUG	-0.532
AGCGACG	0.478
GGAUGGU	3.9
AGUACGC	-0.49
UGCAGUG	0.215
UAUUCAC	-0.678
CUUUAGG	-0.36
CCAAGAU	-0.766
AAAGGGG	4.5
ACCGUCC	-0.772
AACUAUG	-0.402
UCUCUGU	-0.782
CAUCUCU	-0.896
GUAUAAG	0.833
CAAUGGU	0.862
UCAAGGU	0.683
CGCGUAU	-0.399
GCUUGAG	-0.0382
UUACCAG	-0.597
ACGUGGC	0.03
ACCGGCU	-0.626
CCAAGCU	-0.802

Sequence	RNAcompete 7-mer binding Z-score
UAUUGGG	2.33
UGAUUGU	-0.305
CCGCACU	-0.604
GGCUGGG	2.33
UCUGUUG	-0.558
GCAUUGA	0.017
UUUCUGC	-0.831
GCAUCUC	-0.629
UCGCGAA	-0.581
UUAACUA	-0.578
ACUUAUC	-0.717
UCGCAAG	-0.457
UUCCUUA	-0.837
CGUAUGU	-0.347
GUCUAAG	-0.292
AGCCCAA	-0.597
ACGACAU	-0.337
CUAACAC	-0.75
CUUCGGG	0.248
CCUUGGG	0.283
UACCGCC	-0.694
ACGUCGU	-0.327

From the supplement of paper PMC5499739
